# Measurements: a collection of fitness landscapes (doi:10.1126/science.1257360)
# The list shows a part of the results.
# B1: PhoQ; a variant is named by its letters at X, in order, P23837 (parent)
# chain: MKKLLRLFFPLSLRVRFLLATAAVVLVLSLAYGMVALIGYSVSFDKTTFRLLRGESNLFYTLAKWENNKLHVELPENIDKQSPTMTLIYDENGQLLWAQRDVPWLMKMIQPDWLKSNGFHEIEADVNDTSLLLSGDHSIQQQLQEVREDDDDAEMTHSVAVNVYPATSRMPKLTIVVVDTIPVELKSSYMVWSWFIYVLSANLLLVIPLLWVAAWWSLRPIEALAKEVRELEEHNRELLNPATTRELTSLVRNLNRLLKSERERYDKYRTTLTDLTHSLKTPLXXLQXXLRSLRSEKMSVSDAEPVMLEQISRISQQIGYYLHRASMRGGTLLSRELHPVAPLLDNLTSALNKVYQRKGVNISLDISPEISFVGEQNDFVEVMGNVLDNACKYCLEFVEISARQTDEHLYIVVEDDGPGIPLSKREVIFDRGQRVDTLRPGQGVGLAVAREITEQYEGKIVAGESMLGGARMEVIFGRQHSAPKDE
# Variants of: B1
# Assay: enrichment ratio after two sorts for PhoP signalling (ratio (wild type AVST 3.29)); higher = more functional
# Conditions: with PhoP (E. coli)
row,Variant,enrichment ratio
1,WLHA,≤ 0.25
2,AKWR,≤ 0.25
3,FAVM,5.58
4,EGNL,≤ 0.25
5,ARPP,≤ 0.25
6,FCDN,≤ 0.25
7,HVTR,≤ 0.25
8,VDDS,≤ 0.25
9,DPVW,≤ 0.25
10,IRRW,≤ 0.25
11,WVHS,≤ 0.25
12,PPHR,≤ 0.25
13,YNVY,≤ 0.25
14,CVSL,≤ 0.25
15,RDHM,≤ 0.25
16,NPVY,≤ 0.25
17,NNTT,≤ 0.25
18,MERE,≤ 0.25
19,STAA,4.26
20,GNGM,4.88
21,NYKR,≤ 0.25
22,LTQT,≤ 0.25
23,EPWF,≤ 0.25
24,PFYR,1.49

row,Variant,enrichment ratio
1,HLHS,≤ 0.25
2,MFGK,≤ 0.25
3,DCNA,≤ 0.25
4,DFAD,≤ 0.25
5,DCQQ,≤ 0.25
6,KYWA,≤ 0.25
7,DFDT,≤ 0.25
8,SMKQ,≤ 0.25
9,FLND,≤ 0.25
10,WEFA,≤ 0.25
11,LPDS,≤ 0.25
12,YQEG,≤ 0.25
13,HYNK,≤ 0.25
14,GEDV,≤ 0.25
15,HHYM,≤ 0.25
16,GDFC,≤ 0.25
17,MYCK,≤ 0.25
18,TMMC,5.99
19,ARQG,≤ 0.25
20,HWLD,≤ 0.25
21,KFHA,≤ 0.25
22,WDPY,≤ 0.25
23,RGNN,≤ 0.25
24,MAQP,≤ 0.25

row,Variant,enrichment ratio
1,ANSI,18
2,VKFL,≤ 0.25
3,SHDI,≤ 0.25
4,IWEQ,≤ 0.25
5,KRTN,≤ 0.25
6,RGDK,≤ 0.25
7,NNGT,≤ 0.25
8,VWYA,≤ 0.25
9,MKGF,≤ 0.25
10,LWPS,≤ 0.25
11,TVNG,4.22
12,NNVQ,≤ 0.25
13,INIT,≤ 0.25
14,VFHT,≤ 0.25
15,LCLA,≤ 0.25
16,SNCV,14.2
17,HEFI,≤ 0.25
18,KEMP,≤ 0.25
19,HAAH,≤ 0.25
20,PMKH,≤ 0.25
21,PQYS,≤ 0.25
22,VPHY,≤ 0.25
23,PIDK,≤ 0.25
24,GGMC,≤ 0.25

row,Variant,enrichment ratio
1,MGVC,≤ 0.25
2,VRDG,≤ 0.25
3,MATW,≤ 0.25
4,IEGW,≤ 0.25
5,APGT,≤ 0.25
6,SPIT,≤ 0.25
7,NECF,≤ 0.25
8,IEKT,≤ 0.25
9,NVAI,≤ 0.25
10,KHVN,≤ 0.25
11,RWME,≤ 0.25
12,MSWV,10.2
13,QTIL,≤ 0.25
14,VIFL,≤ 0.25
15,FCSR,≤ 0.25
16,MHRN,≤ 0.25
17,QDPG,≤ 0.25
18,MSDQ,≤ 0.25
19,RLRQ,≤ 0.25
20,ETYV,≤ 0.25
21,LNPL,≤ 0.25
22,IYVC,≤ 0.25
23,AMLC,6.08
24,LCHP,≤ 0.25

row,Variant,enrichment ratio
1,HMKK,≤ 0.25
2,VRMV,≤ 0.25
3,MAFH,0.541
4,LQHI,≤ 0.25
5,QLVI,≤ 0.25
6,VHFW,≤ 0.25
7,IFTM,≤ 0.25
8,HSNN,≤ 0.25
9,NKKA,≤ 0.25
10,IPVD,≤ 0.25
11,NPMP,≤ 0.25
12,FFGV,≤ 0.25
13,VETT,≤ 0.25
14,AKST,6.32
15,DAWW,≤ 0.25
16,LTCE,≤ 0.25
17,KTDN,≤ 0.25
18,VFRL,≤ 0.25
19,LYIS,≤ 0.25
20,DTTG,≤ 0.25
21,RYCK,≤ 0.25
22,AIVC,19.1
23,HENM,≤ 0.25
24,NYFY,≤ 0.25

row,Variant,enrichment ratio
1,TKTD,≤ 0.25
2,HVYD,≤ 0.25
3,PAEC,≤ 0.25
4,SGKP,≤ 0.25
5,PELW,≤ 0.25
6,PECV,≤ 0.25
7,QWIG,≤ 0.25
8,NPWT,≤ 0.25
9,FYIM,≤ 0.25
10,CRDY,≤ 0.25
11,EDGS,≤ 0.25
12,WMYF,≤ 0.25
13,IAID,≤ 0.25
14,EFQH,≤ 0.25
15,YLHE,≤ 0.25
16,FWQI,≤ 0.25
17,PSVE,≤ 0.25
18,KFLR,≤ 0.25
19,RKHV,≤ 0.25
20,LMGC,≤ 0.25
21,DNWP,≤ 0.25
22,KFFY,≤ 0.25
23,KQQV,≤ 0.25
24,GLEY,≤ 0.25

row,Variant,enrichment ratio
1,PTWN,≤ 0.25
2,DVYN,≤ 0.25
3,IQCE,≤ 0.25
4,TVSH,15.9
5,LYDN,≤ 0.25
6,KCYS,≤ 0.25
7,FYNR,≤ 0.25
8,MSLF,1.86
9,PRSL,≤ 0.25
10,TADA,2.37
11,WVYM,≤ 0.25
12,YSTL,4.42
13,LTIL,≤ 0.25
14,KPTF,≤ 0.25
15,RILV,≤ 0.25
16,SYCS,≤ 0.25
17,VCSL,5.45
18,RLYN,≤ 0.25
19,TQER,≤ 0.25
20,LYTI,≤ 0.25
21,WVRA,≤ 0.25
22,IMPM,≤ 0.25
23,TRER,≤ 0.25
24,WMLF,≤ 0.25

row,Variant,enrichment ratio
1,LKEE,≤ 0.25
2,HWAS,≤ 0.25
3,FILK,0.268
4,RNMG,≤ 0.25
5,MNGD,≤ 0.25
6,PFHD,≤ 0.25
7,RGFV,≤ 0.25
8,RYMI,≤ 0.25
9,SWII,≤ 0.25
10,NSHI,≤ 0.25
11,YHAH,≤ 0.25
12,QFMA,≤ 0.25
13,PMKV,≤ 0.25
14,NGLQ,≤ 0.25
15,AAEP,≤ 0.25
16,IDMQ,≤ 0.25
17,EKDG,≤ 0.25
18,WIAG,≤ 0.25
19,NFCT,≤ 0.25
20,CRTL,≤ 0.25
21,PGCH,≤ 0.25
22,KLDT,≤ 0.25
23,TRCF,1.17
24,TGVR,≤ 0.25

row,Variant,enrichment ratio
1,RQMA,≤ 0.25
2,PPVN,≤ 0.25
3,FEGN,≤ 0.25
4,QRAI,≤ 0.25
5,VNKR,≤ 0.25
6,LHRV,≤ 0.25
7,LMFP,≤ 0.25
8,FVTD,≤ 0.25
9,IPMY,≤ 0.25
10,DRQN,≤ 0.25
11,QPGP,≤ 0.25
12,SDWY,≤ 0.25
13,VYAL,≤ 0.25
14,QGRA,≤ 0.25
15,IQVN,≤ 0.25
16,ILMW,≤ 0.25
17,DSRK,≤ 0.25
18,MGWW,≤ 0.25
19,HTWW,≤ 0.25
20,NYCR,≤ 0.25
21,KGEW,≤ 0.25
22,WFIV,≤ 0.25
23,VVPP,≤ 0.25
24,NFNK,≤ 0.25

row,Variant,enrichment ratio
1,ISLM,12.9
2,EIVP,≤ 0.25
3,ADDH,≤ 0.25
4,WYYG,≤ 0.25
5,GSFT,≤ 0.25
6,TPIF,≤ 0.25
7,TFLA,4.85
8,LDGN,≤ 0.25
9,IAIH,≤ 0.25
10,MEDP,≤ 0.25
11,TKCP,≤ 0.25
12,NLTW,≤ 0.25
13,SQLG,19.1
14,HVNW,≤ 0.25
15,HGAY,≤ 0.25
16,QCSA,7.28
17,WDRN,≤ 0.25
18,HLGM,≤ 0.25
19,WTKP,≤ 0.25
20,MHWM,≤ 0.25
21,NHLT,≤ 0.25
22,MHPI,≤ 0.25
23,MEVV,2.27
24,MHSE,≤ 0.25

row,Variant,enrichment ratio
1,LHEG,≤ 0.25
2,YGNW,≤ 0.25
3,NFFI,≤ 0.25
4,LFPV,≤ 0.25
5,KWYL,≤ 0.25
6,WYGC,≤ 0.25
7,NYCK,≤ 0.25
8,KGLE,≤ 0.25
9,WLFV,≤ 0.25
10,KGSD,≤ 0.25
11,WNSL,≤ 0.25
12,ESLC,≤ 0.25
13,HDQS,≤ 0.25
14,THYQ,≤ 0.25
15,VCAL,7.03
16,PLIY,≤ 0.25
17,NVMY,≤ 0.25
18,KEMS,≤ 0.25
19,FSGA,≤ 0.25
20,VHCA,≤ 0.25
21,NRWP,≤ 0.25
22,WYNK,≤ 0.25
23,YSQS,≤ 0.25
24,VDQH,≤ 0.25

row,Variant,enrichment ratio
1,RYDP,≤ 0.25
2,AYAF,≤ 0.25
3,PRRW,≤ 0.25
4,YEVD,≤ 0.25
5,EDNK,≤ 0.25
6,MNIH,≤ 0.25
7,SFKS,≤ 0.25
8,ERFL,≤ 0.25
9,MMHK,≤ 0.25
10,MECV,18.2
11,TSPV,≤ 0.25
12,IDDM,≤ 0.25
13,FPKR,≤ 0.25
14,RMPG,≤ 0.25
15,IVGY,≤ 0.25
16,PRTC,≤ 0.25
17,MLDV,≤ 0.25
18,LLES,≤ 0.25
19,FIID,≤ 0.25
20,GTPW,≤ 0.25
21,ISKN,≤ 0.25
22,EGKY,≤ 0.25
23,KSWN,≤ 0.25
24,FRGN,≤ 0.25

row,Variant,enrichment ratio
1,IPPT,≤ 0.25
2,IDYL,≤ 0.25
3,QLNI,≤ 0.25
4,YSCI,2.62
5,DKFA,≤ 0.25
6,SDHH,≤ 0.25
7,KMNS,≤ 0.25
8,RNQC,≤ 0.25
9,SQNP,≤ 0.25
10,SIFN,0.521
11,WNST,≤ 0.25
12,ITRY,≤ 0.25
13,ANDI,≤ 0.25
14,LHWF,≤ 0.25
15,AVCC,8.73
16,EFHT,≤ 0.25
17,LGKE,≤ 0.25
18,ILYQ,≤ 0.25
